Laboratory results as given in publication PMC4336329 (PLoS ONE, 2015).
About 14,000 (4.5%) of roughly 310,000 compounds showed an effect of 50% or more. Effects have a minus sign here. The list shows a part of the results.

molecular target: human ether-à-go-go-related gene (hERG) potassium channel (human, UniProt Q12809); assay: primary screen, population patch clamp on CHO cells stably expressing hERG
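Note: peak tail current of the secondary pulse compared with the same well before compound.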

Chain of human ether-à-go-go-related gene (hERG) potassium channel (Q12809 whole entry, looked up): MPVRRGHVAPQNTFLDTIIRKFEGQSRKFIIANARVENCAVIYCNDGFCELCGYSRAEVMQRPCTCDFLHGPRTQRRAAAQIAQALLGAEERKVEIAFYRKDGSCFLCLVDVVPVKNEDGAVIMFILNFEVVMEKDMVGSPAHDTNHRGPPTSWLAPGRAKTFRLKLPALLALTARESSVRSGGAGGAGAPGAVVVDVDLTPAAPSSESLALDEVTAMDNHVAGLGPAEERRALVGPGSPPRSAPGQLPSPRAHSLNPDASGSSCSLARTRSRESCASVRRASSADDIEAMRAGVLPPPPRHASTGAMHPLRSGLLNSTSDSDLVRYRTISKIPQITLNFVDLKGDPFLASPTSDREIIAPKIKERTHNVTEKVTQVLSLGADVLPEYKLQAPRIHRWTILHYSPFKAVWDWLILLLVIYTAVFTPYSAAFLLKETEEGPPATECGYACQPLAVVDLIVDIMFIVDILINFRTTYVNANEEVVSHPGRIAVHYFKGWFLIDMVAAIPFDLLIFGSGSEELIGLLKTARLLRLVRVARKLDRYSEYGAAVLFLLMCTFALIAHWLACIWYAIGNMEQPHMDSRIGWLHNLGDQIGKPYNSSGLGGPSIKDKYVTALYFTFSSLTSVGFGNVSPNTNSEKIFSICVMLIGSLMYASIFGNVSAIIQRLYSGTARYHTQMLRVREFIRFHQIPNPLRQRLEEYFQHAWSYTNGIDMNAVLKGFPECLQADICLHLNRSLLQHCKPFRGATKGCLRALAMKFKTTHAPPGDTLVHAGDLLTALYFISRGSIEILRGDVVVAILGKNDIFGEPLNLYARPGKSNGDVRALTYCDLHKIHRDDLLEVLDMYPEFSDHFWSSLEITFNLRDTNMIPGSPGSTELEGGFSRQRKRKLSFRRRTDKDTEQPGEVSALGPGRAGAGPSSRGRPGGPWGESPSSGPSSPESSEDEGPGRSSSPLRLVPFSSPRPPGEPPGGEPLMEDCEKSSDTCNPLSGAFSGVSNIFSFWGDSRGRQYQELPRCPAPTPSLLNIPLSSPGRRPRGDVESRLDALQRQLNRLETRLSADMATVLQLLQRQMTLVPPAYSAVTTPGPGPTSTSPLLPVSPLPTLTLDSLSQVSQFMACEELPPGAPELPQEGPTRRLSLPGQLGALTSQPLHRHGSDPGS

Row | SMILES | hERG current change (%, negative = inhibition) at 10uM
1 | Cc1ccc(NC(=O)CCC(=O)NNC(=O)c2ccccc2[N+](=O)[O-])c(C)c1 | 16.3%
2 | Cc1ccc(NC(=S)Nc2ccc(F)cc2)c(C)c1 | 19.6%
3 | Cc1ccc(C(=O)OCC(=O)c2ccc(Cl)s2)s1 | 12.4%
4 | COCc1cc(=O)[nH]c(N2CCN(Cc3ccc4c(c3)OCO4)CC2)n1 | 1.19%
5 | CN(C)[C@@H](CO)c1nnc([C@H](Cc2ccc(O)cc2)NC(=O)C2CCNCC2)o1.Cl | 3.51%
6 | COC(=O)c1ccccc1NC(=O)c1ccc(-c2ccc(Br)cc2)o1 | 27.4%
7 | Cc1cc(C(=O)N2CCC3(CC2)OCCO3)no1 | 18%
8 | CC(NC(=O)Cc1ccccc1)c1cc2c(cc1Br)OCCCO2 (stereo not drawn) | 1.03%
9 | O=C(/C=C/c1ccco1)NCC(=O)N/N=C/c1ccc(Cl)cc1 | -13.1%
10 | COc1ccc(-c2nc(-c3cccc([N+](=O)[O-])c3O)cc(=O)o2)cc1OC | -0.944%
11 | S=C(NCc1cccs1)Nc1cccc(Cl)c1Cl | -5.86%
12 | Cc1ccc(C)c(NC(=O)Cn2nc(C(F)(F)F)cc2C2CC2)c1 | 21.6%
13 | COc1ccc(-c2cc3ccccc3n2CC(O)CN2CCOCC2)cc1 (stereo not drawn) | -13.5%
14 | Cc1cc(C(=O)NNC(=O)c2ccc(Cl)cc2Cl)c(C)o1 | -1.01%
15 | COC(=O)C1=C(c2cccc(OC)c2OC)C[C@@H]2CC[C@H]1N2C(=O)NCc1ccc(F)cc1 | 0.311%
16 | CCSc1nnc(NC(=O)C2CCCCC2)s1 | 3.64%
17 | COc1ccc(-c2cc(C(=O)N3CCCCC3)no2)cc1OC | 5.47%
18 | Cc1cccc(NC(=O)/C(C#N)=C\c2ccc(C(=O)O)cc2)c1 | 13.6%
19 | COc1ccc(C(=O)Nc2cccc(/C=C(\CCC(=O)O)c3nc4ccccc4s3)c2)cc1 | 8.59%
20 | CCOC(=O)C1CCN(Cc2ccc(Cl)c(Cl)c2)CC1 | -5.6%
21 | CC(Nc1ccc2c(c1)OCCO2)C(=O)Nc1ccc2c(c1)OCO2 (stereo not drawn) | 14.8%
22 | O=[N+]([O-])c1ccccc1S(=O)(=O)N1CCN(c2ccccn2)CC1 | 2.24%

Row | SMILES | hERG current change (%, negative = inhibition) at 10uM
23 | COc1ccc(CCc2nnc(CCC(=O)NCC3CCCO3)o2)cc1 (stereo not drawn) | 2.75%
24 | NC(=O)c1ccccc1OCC(=O)N1CCc2ccccc2C1 | 8.34%
25 | CCOC(=O)C(C)OC(=O)C1=C(C)NC(=O)NC1c1ccc2c(c1)OCO2 (stereo not drawn) | -1.27%
26 | O=S1(=O)OCCC(c2ccccc2)N1Cc1ccccc1 (stereo not drawn) | -0.627%
27 | COc1ccc(NC(=O)CN(C)S(=O)(=O)c2cnc[nH]2)cc1Cl | 16%
28 | COc1ccccc1NC(=O)CN(Cc1ccco1)C(=O)c1ccc(Cl)nc1 | -28.4%
29 | CC(C)c1ccc(-c2c(C#N)c(N)nc(SCC(=O)N3CCCCCC3)c2C#N)cc1 | 8.56%
30 | CCOC(=O)Cc1csc(SCC(=O)Nc2nccs2)n1 | -2.46%
31 | O=C(NCc1cccnc1)c1ccc(Br)s1 | -16.9%
32 | O=C(NCCc1ccccc1)c1ccc2c(=O)[nH]c3c(C(=O)NCC4CCCO4)sc(=S)n3c2c1 (stereo not drawn) | 16.5%
33 | Cc1c(Cl)c(C(F)(F)F)nn1CC(=O)N1CCSCC1 | 4.35%
34 | CCC(=O)NC(=S)Nc1cccc(NC(=O)c2ccccc2C)c1 | 29.6%
35 | COC(=O)c1ccc(NC(=O)CSc2nnc(C)n2CC2CCCO2)cc1 (stereo not drawn) | 2%
36 | CC(C)c1ccc(S(=O)(=O)NC2CCCC2)cc1 | 3.12%
37 | CCCC(=O)NCc1ccncc1 | 14.5%
38 | CCCc1cc(=O)oc2cc(C)cc(OCC(=O)Nc3ccc(CN4CCOCC4)cc3)c12 | 9.83%
39 | Cc1cccn2c(=O)c3cc(C#N)c(=NC(=O)c4ccccc4)n(Cc4ccco4)c3nc12 | -40.3%
40 | CC(=O)c1ccc(N2CCN(C(=S)Nc3ccccc3F)CC2)cc1 | 8.93%
41 | Cc1ccc(S(=O)(=O)NCCCCCC(N)=O)cc1 | 3.91%
42 | CN(C)c1cccc(C(=O)NCc2ccc(Cl)cc2)c1 | -8.25%
43 | CCc1ccc(NC(=S)N2CCC(NC(=O)c3ccccc3OC)CC2)cc1 | -18.5%
44 | O=C(CCCn1c(=O)oc2ccccc21)N1CCc2ccccc2C1 | -30.6%

Row | SMILES | hERG current change (%, negative = inhibition) at 10uM
45 | CC1(C)CC(=O)c2cc(OCC(=O)NCCN3CCCc4ccccc43)ccc2O1 | -47.5%
46 | O=C(NCCc1ccccc1)c1ccc(=O)[nH]c1 | 6.89%
47 | O=C(NCCCNc1ccc([N+](=O)[O-])cc1Cl)c1ccccc1F | -4.03%
48 | COc1ccc(Cn2c(=O)[nH]c3cc(C(=O)NCCCN4CCCCCC4)ccc3c2=O)cc1 | -8.74%
49 | Nc1ncnc2c1nc(Sc1ccc(Cl)cc1)n2[C@@H]1O[C@@H]2COP(=O)([O-])O[C@H]2[C@H]1O.[Na+] | 1.79%
50 | COc1cccc(C(=O)Nc2cc(NC(=O)c3cccs3)ccc2C)c1 | 0.446%
51 | CCC(C)(C)n1nnnc1CN1CCC(n2c(C)nc3cc(C(F)(F)F)ccc32)CC1 | -5.5%
52 | CC1(C)CC(=O)C(C=NCCN2CCN(C(=O)c3ccc(F)cc3)CC2)=C(O)C1 | -21.1%
53 | O=C(Nc1ccc(C(=O)N2CCN(c3ccc(Cl)cc3)CC2)cc1)C1=CSCCO1 | -18.7%
54 | COc1cc2ccccc2cc1C(=O)N1CC(C)CC(C)C1 (stereo not drawn) | -15.4%
55 | O=C(NC12CC3CC(CC(C3)C1)C2)c1cc(F)c(F)c(F)c1F | 21.1%
56 | Cc1ccc(S(=O)(=O)N2CCCC2)cc1C(=O)NCCOc1ccccc1 | -5.81%
57 | Cc1ccc(-c2noc(COc3ccccc3C)n2)cc1 | 16.1%
58 | COC(=O)C(Cc1c[nH]c2ccccc12)NC(=O)c1cccs1 (stereo not drawn) | 0.0385%
59 | CC(Oc1ccccc1)C(=O)Nc1nnc(S(=O)(=O)N2CCCCC2)s1 (stereo not drawn) | 5.81%
60 | O=C(CSc1ccccn1)Nc1ccc(F)c([N+](=O)[O-])c1 | -5.31%
61 | CN(C(=O)COc1ccc(Cl)cc1Cl)c1nnc(C23CC4CC(CC(C4)C2)C3)s1 | 18.8%
62 | Cc1[nH]c2ccccc2c1CCNS(=O)(=O)c1ccc(S(N)(=O)=O)cc1 | 7.53%
63 | Cc1cccc(C(=O)OCC(=O)N2CCCC2=O)c1O | -16.1%
64 | COc1ccc(CN2CCN(CCc3ccccc3)C(CCO)C2)c(Cl)c1OC (stereo not drawn) | -60.1%
65 | CCOC(=O)c1c(-c2ccccc2)nc2ccccn12 | 0.959%
66 | COc1ccc(CCNC(=S)NC(=O)c2ccccc2)cc1C | 19.8%

Row | SMILES | hERG current change (%, negative = inhibition) at 10uM
67 | N#CCCCSC1=C(C#N)C(c2ccccc2Cl)CC(=O)N1 (stereo not drawn) | -16.6%
68 | CCN(CC)C(=O)c1[nH]cnc1C(=O)N[C@@H](CCCCNC(=O)OC(C)(C)C)C(=O)OC(C)(C)C | 11.1%
69 | CCc1ccc(N(C(=O)c2csnn2)C(C(=O)NC2CCCCC2)c2cccnc2)cc1 (stereo not drawn) | -4.34%
70 | CCOc1cccc2c1OC1(C)CC2NC(=O)N1c1cccc(Cl)c1 (stereo not drawn) | 1.64%
71 | O=C(COC(=O)c1nc(Cl)ccc1Cl)Nc1ccc(Cl)cc1 | -7.78%
72 | O=C1COc2ccc(S(=O)(=O)N3CCN(c4ccccc4F)CC3)cc2N1 | 10.2%
73 | COC(=O)c1cccc(NC(=S)Nc2cccc(Cl)c2C)c1 | 13.9%
74 | COc1ccc(N2CCN(S(=O)(=O)c3ccc(Br)s3)CC2)cc1 | -4.01%
75 | Cc1oc(-c2cccc(Cl)c2)nc1CS(=O)(=O)CC(=O)NC1CCCC1 | 6.45%
76 | O=C(c1ccco1)N1CCN(Cc2nc3cc(Cl)ccc3c(=O)[nH]2)CC1 | -61.8%
77 | COc1cc(C(=O)Nc2cccc(S(=O)(=O)N3CCCC3)c2)c([N+](=O)[O-])cc1OC | -5.39%
78 | COc1cccc(N2CCN(C(=O)c3cc4ccc(OC)cc4[nH]3)CC2)c1 | 6.27%
79 | C[C@@]12CC(=O)NC1N(C(=O)c1cccc(C(F)(F)F)c1)C(c1ccccc1O)C2 (stereo partly drawn) | 12.1%
80 | CN1C[C@@H]2C[C@@H](c3cccn3-c3ccccn3)N3CCC[C@@]23C1=O | -43.6%
81 | Cc1ccccc1CN1CCNC(=O)C1CC(=O)NCCC1=CCCCC1 (stereo not drawn) | 2.78%
82 | O=C(NCc1cccc(C(F)(F)F)c1)C1CCCN(c2ncccn2)C1 (stereo not drawn) | -37.1%
83 | CC(C(=O)Nc1ccc(N(C)C)cc1)N1C(=O)c2ccccc2S1(=O)=O (stereo not drawn) | 15.3%
84 | CCOC(=O)Cc1csc(NC(=O)CSc2nnc(-n3nc(C)cc3C)c3ccccc23)n1 | -49.7%
85 | COc1ccc(NC(=O)COC(=O)c2ccc3c(c2)OCCO3)cc1OC | 15.9%
86 | COc1ccc(/C=N/NC(=O)c2cccnc2)cc1CSc1nc2ccccc2s1 | -4.2%
87 | CC(C)Cn1cnc2c(c1=N)C(c1ccccc1)C1=C(CC(C)(C)CC1=O)O2 (stereo not drawn) | -38.8%
